Experimental data taken from PubChem BioAssay AID624172 (National Center for Advancing Translational Sciences (NCATS), 2012).
In all, about 380,000 compounds went through this assay and about 25 (0.007%) were called active. Inconclusive means that the source gave no clear call. Such entries were picked first, then a sample of the others. Calls come from the whole dose curve; as a rule, active = well fitted activation curve with a large enough effect; inconclusive = small, poorly fitted or top-dose-only effect; inactive = no such curve, though single readings can be large or run the other way. No potency is given beside an inconclusive call; the fits are too rough.

Biological target: Glucagon-like peptide 1 receptor (Homo sapiens) (UniProt P43220)
Chain of UniProt P43220 (P43220 whole entry, looked up): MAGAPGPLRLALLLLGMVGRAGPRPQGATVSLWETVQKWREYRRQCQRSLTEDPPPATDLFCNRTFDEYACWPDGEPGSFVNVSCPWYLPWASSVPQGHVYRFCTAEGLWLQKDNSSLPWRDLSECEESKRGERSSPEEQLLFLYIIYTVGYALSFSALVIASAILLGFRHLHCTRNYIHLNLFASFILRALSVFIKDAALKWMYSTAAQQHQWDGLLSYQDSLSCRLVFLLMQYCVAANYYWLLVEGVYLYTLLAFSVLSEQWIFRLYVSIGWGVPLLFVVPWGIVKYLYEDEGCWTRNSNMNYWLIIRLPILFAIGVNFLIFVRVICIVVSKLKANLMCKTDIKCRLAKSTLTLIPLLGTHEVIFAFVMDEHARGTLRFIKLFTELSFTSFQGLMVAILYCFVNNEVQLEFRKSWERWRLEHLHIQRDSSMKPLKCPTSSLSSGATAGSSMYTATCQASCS
Test: qHTS of GLP-1 Receptor Agonists; for activation: % of control where 0% means no effect
Settings: HEK293 GLP-1R CRE-luciferase, luminescence, 4-6 h, cells express a hypersensitive GLP-1R form; activation: at 45.6 µM (top of the series) unless noted
Potency is the fitted concentration of half-maximal effect; tags give direction and shape of the fitted curve.

SMILES	Potency	activation
COCCn1c(=S)[nH]c2cc(C(=O)N3CC(C)CC(C)C3)ccc2c1=O (configuration not stated)	inactive	
COc1ccc(Cl)cc1C(=O)OCC(=O)Nc1cccnc1Cl	inconclusive [activator, partial curve]	
O=C(Cc1ccc2c(c1)CCCC2)Nc1ccccc1Cl	inconclusive [activator, partial curve]	
Cc1ccc(Nc2nc(N)nc(-c3oc4ccccc4c3C)n2)cc1	inconclusive [activator, partial curve, poor fit]	
COc1cc2ccccc2cc1C(=O)Nc1cccnc1	inconclusive [activator, partial curve, poor fit]	
CCOC(=O)c1oc2c(c1C)/C(=N/O)CCC2	inconclusive [activator, partial curve]	
COc1ccc(N/C=C/C(=O)c2cc(OC)c(OC)c(OC)c2)cc1	inconclusive [activator, single point]	
OC(CNCc1ccc(-c2ccccc2)cc1)c1ccccc1 (configuration not stated)	inconclusive [activator, partial curve, poor fit]	
COc1ccccc1Cc1nc2ccccc2nc1SCC(=O)N1CCC(C)CC1	inactive	
COc1cc(/C=N/NC(=O)c2cc(-c3c(C)nn(-c4ccccc4)c3C)n[nH]2)ccc1O	inconclusive [activator, partial curve]	
COc1ccccc1C(=O)Nc1cccc2cccnc12	inconclusive [activator, single point]	
COc1ccc(/C(C)=N/NC(=S)NCCc2ccccc2)cc1	inconclusive [activator, single point]	
COc1ccccc1-c1nnc(SCC(=O)c2ccc(F)cc2)n1-c1ccccc1	inactive	
Nc1nc(N)c2ncc(C(=O)CCc3ccccc3)nc2n1		inconclusive: 60.1% [activator]
CC(=O)c1cc(C#N)c(SCc2ccccc2)nc1C	inconclusive [activator, partial curve, poor fit]	
O=C(/C=C/c1ccccc1)N1CCN(c2ccccn2)CC1	inconclusive [activator, single point]	
Cc1cccc(NC(=O)CCc2c(C)nc3c(c(C)nn3C(C)(C)C)c2C)c1C	inactive	
Nn1c(COc2ccccc2)nnc1SCC(=O)O	inactive	
COc1ccc(C2(CNC(=O)c3ccc(OC)c([N+](=O)[O-])c3)CCCCC2)cc1OC	inconclusive [activator, partial curve, poor fit]	
CCOc1ccc(Nc2cc3n(c(=O)n2)CCc2cc(OC)c(OC)cc2-3)cc1	inconclusive [activator, full curve, poor fit]	
CC12CCC(C(=O)N(c3cccc(Cl)c3)C1=O)C2(C)C (configuration not stated)	inconclusive [activator, single point]	
Cc1oc(-c2ccc(Cl)cc2)cc1C(=O)N1CCC1(C)C(=O)O (configuration not stated)	inactive	
C=CCc1c(C)nc(SC)nc1Nc1ccc(C)cc1	inconclusive [activator, partial curve]	

SMILES	Potency	activation
COC(=O)c1c(-c2cc(OC)cc(OC)c2)sc2ccc(OC)cc12	inconclusive [activator, single point]	
CC1(C(=O)Nc2nc3ccccc3s2)CC1(Br)Br (configuration not stated)	inconclusive [activator, single point]	
Cc1nccc(-c2sc(-c3cccs3)nc2C)n1	inconclusive [activator, partial curve, poor fit]	
COc1ccc(/C=c2\s/c(=C/C(=O)c3ccc(C)cc3)[nH]c2=O)c(OC)c1	inactive	
O=C(O)c1ccc(/C=N/Nc2ncc(C(F)(F)F)cc2Cl)cc1	inactive	
COc1cccc(C(=O)N2CCCc3ccccc32)c1	inconclusive [activator, single point]	
CCOC(=O)/C(C)=C1\NC(C)(C)Cc2ccccc21	inactive	
O=C1NC(Cc2c[nH]c3ccccc23)C(=O)N1Cc1cccc2ccccc12 (configuration not stated)	inconclusive [activator, single point]	
Oc1ccc(CCNCCCCCCNCCc2ccccc2)cc1O	inconclusive [activator, full curve, poor fit]	
CN=C1SC(CC(=O)Nc2ccccc2F)C(=O)N1/N=C/c1ccc(O)c(OC)c1 (configuration not stated)	inconclusive [activator, partial curve, poor fit]	
C[C@H](CO)N1C[C@H](C)[C@H](CN(C)S(=O)(=O)c2cccc(F)c2)OCc2ccccc2-c2c(n(C)c3ccccc23)C1=O	inactive	
CC(/C=N/NC(=O)Cc1cccs1)=C\c1ccco1	inactive	
CSc1nnc2n(-c3ccccc3)c(=O)c3c4c(sc3n12)CCC4	inconclusive [activator, full curve, poor fit]	
Cc1ccc2c(c1)NC(=O)[C@@]1(C)[C@@H](c3ccccc3)[C@H]3COc4ccccc4[C@@H]3N1C2=O	inactive	
C=CCN=C1S/C(=C\c2ccc(N(C)C)cc2)C(=O)N1CC=C	inconclusive [activator, partial curve, poor fit]	
CCOC(=O)c1cc(NC(=O)c2cccnc2)cc(C(=O)OCC)c1	inconclusive [activator, partial curve, poor fit]	
COc1ccc(/C=C/C(=O)OCc2csc(-c3ccccc3)n2)cc1OC	inconclusive [activator, single point]	
COc1ccccc1NC(=O)COC(=O)/C=C/c1ccc(OC)c(OC)c1	inconclusive [activator, full curve, poor fit]	
CCCc1nnc2c(N(C)S(=O)(=O)c3ccc(C)cc3)nc3ccccc3n12	inconclusive [activator, partial curve]	
CCCn1cnc2c(SCc3ccccc3F)nc(N)nc21	inconclusive [activator, partial curve, poor fit]	
COC(=O)c1ccc(OCC2c3cc(OC)c(OC)cc3CCN2C(=O)Cc2ccc(OC)c(OC)c2)cc1 (configuration not stated)	inconclusive [activator, single point]	
CCCCC(=O)Nc1sc2c(c1C(N)=O)CCC2	inconclusive [activator, single point]	
CN(C)c1ccc(N=Nc2ccccc2C(=O)OCC(=O)Nc2ccccc2C(F)(F)F)cc1	inconclusive [activator, partial curve]	

SMILES	Potency	activation
Cn1cccc1C(=O)OCC(=O)N1CCc2ccccc2C1	inconclusive [activator, partial curve, poor fit]	
CCCNC(=O)c1ccc(COc2ccc(C(C)(C)C)cc2)o1	inconclusive [activator, partial curve, poor fit]	
CCOC(=O)C1=C(C)NC(SCC(N)=O)=C(C#N)C1c1ccccc1 (configuration not stated)	inconclusive [activator, partial curve, poor fit]	
COc1ccc(N(CC(O)CN2CCOCC2)S(=O)(=O)c2ccccc2)cc1 (configuration not stated)		inconclusive: 39.1% [activator]
N#C/C(=C\c1ccc(O)c(O)c1)C(=O)NCCc1ccccc1	inconclusive [activator, partial curve, poor fit]	
COc1ccc(C(=O)c2ccc(N(C)C)cc2)c2ccccc12	inconclusive [activator, partial curve, poor fit]	
CCOC1=C2[C@H](c3ccc(Cl)cc3)N(S(=O)(=O)c3ccc(C)cc3)C[C@H]2n2c(=O)n(-c3ccccc3)c(=O)n2C1	inactive	
CN(C)C(=O)CSc1ncnc2scc(-c3ccccc3)c12	inconclusive [activator, partial curve, poor fit]	
CSc1cccc(NC(=O)C(=O)NCc2ccccc2)c1	inactive	
CC(=O)N[C@@H](CS)C(=O)O		inconclusive: 40.6% [activator]
CC1CCCCC1NC(=O)/C=C/c1nc2ccccc2s1 (configuration not stated)	inconclusive [activator, single point]	
Clc1ccc(OCCn2cnc3ccccc32)c(Cl)c1	inconclusive [activator, single point]	
CSc1ccccc1NC(=O)COc1ccc(Cl)cc1Cl	inconclusive [activator, partial curve, poor fit]	
CC(=O)c1c(C)[nH]c(C(=O)OCc2ccc(Br)cc2)c1C	inconclusive [activator, single point]	
CCOC(=O)c1sc2nc(OCc3cccnc3)cc(C)c2c1N	inconclusive [activator, single point]	
CCOc1ccc2[nH]c(=O)c(CN(CCN3CCCC3)C(=S)Nc3ccccc3OCC)cc2c1	inconclusive [activator, single point]	
Cc1nc(-c2cccs2)sc1C(=O)NN	inconclusive [activator, single point]	
O=S1(=O)N=C(Nc2ccc(N3CCOCC3)c(Cl)c2)c2ccccc21	inconclusive [activator, partial curve]	
O=C(C1CCCCC1)N1C[C@H](n2cc(-c3ccc(F)cc3)nn2)[C@@H](O)C[C@@H]1c1ccc(Cl)cc1	inactive	
COc1ccccc1NC(=O)C1=C(C)Nc2nc(SCc3ccccc3Cl)nn2C1c1cccnc1 (configuration not stated)	inactive	
CCOc1cc(C(=O)N/N=C/C(Br)=C/c2ccccc2)cc(OCC)c1OCC	inconclusive [activator, partial curve, poor fit]	
